Test results published in publication PMC7645679.
No constants are given. Whether binding was seen depends on the method and setting. For part of these data: Binding seen in cells or lysates may run through a third protein. Some entries that bind do so weakly or less than the wild type. Where a sequence is shown, tags or fusion partners need not be part of it. Each block holds one binder with its values, some of them ahead of it.

How the values were obtained:
[1] = target: T1, SA2 (cohesin subunit), endogenous in mESCs (mouse (endogenous in mESCs)) (UniProt O35638); test: co-IP; mESC nuclear extracts (benzonase, diluted to 200 mM NaCl), 500 μg, immunoprecipitated with anti-SA1 (Abcam ab4457) on Protein G beads; blots with anti-FLAG, anti-SA1, anti-RAD21, anti-SA2
T1 sequence: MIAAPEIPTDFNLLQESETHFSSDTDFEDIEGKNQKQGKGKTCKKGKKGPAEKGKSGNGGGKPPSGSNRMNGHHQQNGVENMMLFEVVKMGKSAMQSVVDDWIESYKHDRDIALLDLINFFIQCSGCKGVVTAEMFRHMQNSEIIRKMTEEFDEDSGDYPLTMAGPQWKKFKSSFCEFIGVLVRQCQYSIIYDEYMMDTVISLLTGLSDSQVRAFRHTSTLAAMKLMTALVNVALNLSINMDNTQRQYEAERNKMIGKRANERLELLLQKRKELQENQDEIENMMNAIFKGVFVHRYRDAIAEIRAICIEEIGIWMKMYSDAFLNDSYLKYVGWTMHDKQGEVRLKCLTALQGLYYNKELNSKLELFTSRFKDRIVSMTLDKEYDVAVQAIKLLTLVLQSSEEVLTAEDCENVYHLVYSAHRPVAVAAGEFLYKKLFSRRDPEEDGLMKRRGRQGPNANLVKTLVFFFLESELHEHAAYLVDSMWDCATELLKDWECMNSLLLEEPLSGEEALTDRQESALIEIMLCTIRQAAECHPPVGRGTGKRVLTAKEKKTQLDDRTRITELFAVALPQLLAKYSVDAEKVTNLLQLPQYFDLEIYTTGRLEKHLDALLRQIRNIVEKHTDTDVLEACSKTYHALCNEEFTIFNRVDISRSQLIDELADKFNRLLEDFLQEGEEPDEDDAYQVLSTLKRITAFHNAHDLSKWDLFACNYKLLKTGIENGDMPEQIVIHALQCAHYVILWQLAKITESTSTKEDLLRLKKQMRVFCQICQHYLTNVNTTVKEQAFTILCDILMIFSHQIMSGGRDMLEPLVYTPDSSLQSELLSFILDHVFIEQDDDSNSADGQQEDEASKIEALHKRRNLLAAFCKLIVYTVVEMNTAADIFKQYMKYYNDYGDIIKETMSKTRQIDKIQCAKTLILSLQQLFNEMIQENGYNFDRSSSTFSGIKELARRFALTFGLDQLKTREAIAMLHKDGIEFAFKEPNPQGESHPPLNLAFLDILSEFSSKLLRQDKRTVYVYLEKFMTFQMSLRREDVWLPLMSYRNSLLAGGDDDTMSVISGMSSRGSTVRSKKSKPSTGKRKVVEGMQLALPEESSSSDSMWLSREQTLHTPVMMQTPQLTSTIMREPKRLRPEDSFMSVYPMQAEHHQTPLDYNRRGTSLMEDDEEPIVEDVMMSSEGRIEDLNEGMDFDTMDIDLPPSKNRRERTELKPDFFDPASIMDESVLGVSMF

[2] = target: T2, SA1 (cohesin subunit), endogenous in mESCs (mouse (endogenous in mESCs)) (UniProt Q9D3E6); test: as above
T2 sequence: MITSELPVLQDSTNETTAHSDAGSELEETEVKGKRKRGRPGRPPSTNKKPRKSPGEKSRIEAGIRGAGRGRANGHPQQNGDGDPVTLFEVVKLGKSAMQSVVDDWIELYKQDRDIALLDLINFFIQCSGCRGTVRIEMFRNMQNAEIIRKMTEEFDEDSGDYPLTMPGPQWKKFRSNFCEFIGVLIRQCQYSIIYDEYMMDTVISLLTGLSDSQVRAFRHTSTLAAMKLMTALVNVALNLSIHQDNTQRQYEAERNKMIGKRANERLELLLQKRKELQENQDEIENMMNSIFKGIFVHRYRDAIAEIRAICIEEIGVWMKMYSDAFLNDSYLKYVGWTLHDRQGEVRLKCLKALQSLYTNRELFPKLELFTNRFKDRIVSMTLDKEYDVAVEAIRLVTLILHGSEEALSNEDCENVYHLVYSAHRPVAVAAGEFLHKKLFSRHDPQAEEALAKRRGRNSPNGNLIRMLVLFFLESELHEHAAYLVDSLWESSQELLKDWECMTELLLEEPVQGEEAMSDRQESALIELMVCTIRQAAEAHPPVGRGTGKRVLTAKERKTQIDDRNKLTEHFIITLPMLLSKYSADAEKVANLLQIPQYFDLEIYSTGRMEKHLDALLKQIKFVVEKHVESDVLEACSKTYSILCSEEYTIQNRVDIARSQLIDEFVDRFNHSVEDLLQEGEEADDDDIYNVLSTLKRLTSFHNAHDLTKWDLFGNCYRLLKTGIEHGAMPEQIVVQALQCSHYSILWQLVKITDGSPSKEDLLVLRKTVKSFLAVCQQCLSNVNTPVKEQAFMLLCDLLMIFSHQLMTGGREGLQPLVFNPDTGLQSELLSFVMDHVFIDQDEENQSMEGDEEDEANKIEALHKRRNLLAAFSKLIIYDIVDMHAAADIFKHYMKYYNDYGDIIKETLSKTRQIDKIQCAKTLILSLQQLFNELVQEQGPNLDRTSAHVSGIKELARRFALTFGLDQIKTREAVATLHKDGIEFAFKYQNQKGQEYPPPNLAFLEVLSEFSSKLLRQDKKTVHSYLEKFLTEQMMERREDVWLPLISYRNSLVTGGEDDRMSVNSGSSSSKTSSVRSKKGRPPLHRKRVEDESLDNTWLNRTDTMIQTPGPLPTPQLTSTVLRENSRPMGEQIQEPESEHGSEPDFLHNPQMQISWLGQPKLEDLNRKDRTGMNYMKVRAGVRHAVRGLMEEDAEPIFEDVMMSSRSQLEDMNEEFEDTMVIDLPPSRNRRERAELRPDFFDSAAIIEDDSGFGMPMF

[3] = target: T3, CTCF (mouse), GFP fusion tethered to the LacO array in the fluorescent three-hybrid assay (mouse), Q61164; test: fluorescent three-hybrid (F3H); GFP-tagged bait tethered to a LacO array by GFP nanobody–LacR in BHK-LacO cells; recruitment of mKate2-tagged prey read as Pearson correlation of green and red channels at the array; cells fixed 24 h after transfection; details: remark: other sources report otherwise
T3 chain: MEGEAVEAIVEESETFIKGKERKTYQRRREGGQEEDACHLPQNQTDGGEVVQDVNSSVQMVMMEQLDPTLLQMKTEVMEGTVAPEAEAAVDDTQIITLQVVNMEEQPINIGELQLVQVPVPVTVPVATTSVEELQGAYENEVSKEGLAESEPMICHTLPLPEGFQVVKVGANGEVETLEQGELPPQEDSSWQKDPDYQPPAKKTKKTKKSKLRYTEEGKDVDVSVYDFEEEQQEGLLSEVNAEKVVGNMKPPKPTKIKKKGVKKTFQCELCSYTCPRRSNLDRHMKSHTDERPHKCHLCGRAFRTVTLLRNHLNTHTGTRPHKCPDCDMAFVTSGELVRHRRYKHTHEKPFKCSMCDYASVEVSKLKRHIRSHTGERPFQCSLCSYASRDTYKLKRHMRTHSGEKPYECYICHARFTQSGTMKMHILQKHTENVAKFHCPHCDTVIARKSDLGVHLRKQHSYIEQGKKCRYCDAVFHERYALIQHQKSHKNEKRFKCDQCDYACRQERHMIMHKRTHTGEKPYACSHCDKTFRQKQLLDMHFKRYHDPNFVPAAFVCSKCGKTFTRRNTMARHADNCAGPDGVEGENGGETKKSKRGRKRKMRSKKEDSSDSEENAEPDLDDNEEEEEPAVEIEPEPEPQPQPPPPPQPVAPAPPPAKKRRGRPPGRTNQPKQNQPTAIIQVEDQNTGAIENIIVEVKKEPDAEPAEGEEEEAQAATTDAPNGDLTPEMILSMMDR

binding [1]: binds | binding [2]: binds
B1: CTCF ΔC(577–614) transgene (FLAG, mRuby2) in mESCs (protein, UniProt Q61164)
chain: MEGEAVEAIVEESETFIKGKERKTYQRRREGGQEEDACHLPQNQTDGGEVVQDVNSSVQMVMMEQLDPTLLQMKTEVMEGTVAPEAEAAVDDTQIITLQVVNMEEQPINIGELQLVQVPVPVTVPVATTSVEELQGAYENEVSKEGLAESEPMICHTLPLPEGFQVVKVGANGEVETLEQGELPPQEDSSWQKDPDYQPPAKKTKKTKKSKLRYTEEGKDVDVSVYDFEEEQQEGLLSEVNAEKVVGNMKPPKPTKIKKKGVKKTFQCELCSYTCPRRSNLDRHMKSHTDERPHKCHLCGRAFRTVTLLRNHLNTHTGTRPHKCPDCDMAFVTSGELVRHRRYKHTHEKPFKCSMCDYASVEVSKLKRHIRSHTGERPFQCSLCSYASRDTYKLKRHMRTHSGEKPYECYICHARFTQSGTMKMHILQKHTENVAKFHCPHCDTVIARKSDLGVHLRKQHSYIEQGKKCRYCDAVFHERYALIQHQKSHKNEKRFKCDQCDYACRQERHMIMHKRTHTGEKPYACSHCDKTFRQKQLLDMHFKRYHDPNFVPAAFVCSKCGKTFTRRNTMARHADNNAEPDLDDNEEEEEPAVEIEPEPEPQPQPPPPPQPVAPAPPPAKKRRGRPPGRTNQPKQNQPTAIIQVEDQNTGAIENIIVEVKKEPDAEPAEGEEEEAQAATTDAPNGDLTPEMILSMMDR

binding [3]: no binding
B2: PDS5B (mouse), mKate2 fusion, Q4VA53 1-1446 (protein)
chain: MAHSKTRTNDGKITYPPGVKEISDKISKEEMVRRLKMVVKTFMDMDQDSEEEKELYLNLALHLASDFFLKHPDKDVRLLVACCLADIFRIYAPEAPYTSPDKLKDIFMFITRQLKGLEDTKSPQFNRYFYLLENIAWVKSYNICFELEDSNEIFTQLYRTLFSVINNGHNQKVHMHMVDLMSSIICEGDTVSQELLDTVLVNLVPAHKNLNKQAYDLAKALLKRTAQAIEPYITNFFNQVLMLGKTSISDLSEHVFDLILELYNIDSHLLLSVLPQLEFKLKSNDNEERLQVVKLLAKMFGAKDSELASQNKPLWQCYLGRFNDIHVPIRLECVKFASHCLMNHPDLAKDLTEYLKVRSHDPEEAIRHDVIVSIVTAAKKDILLVNDHLLNFVRERTLDKRWRVRKEAMMGLAQIYKKYSLQSAAGKDAAKQISWVKDKLLHIYYQNSIDDRLLVERIFAQYMVPHNLETTERMKCLYYLYATLDLNAVKALNEMWKCQNLLRHQVKDLLDLIKQPKTDASVKAIFSKVMVITRNLPDPGKAQDFMKKFTQVLEDDEKIRKQLEALVSPTCSCKQAEGCVREITKKLGNPKQPTNPFLEMIKFLLERIAPVHIDTESISALIKQVNKSIDGTADDEDEGVPTDQAIRAGLELLKVLSFTHPISFHSAETFESLLACLKMDDEKVAEAALQIFKNTGSKIEEDFPHIRSALLPVLHHKSKKGPPRQAKYAIHCIHAIFSSKETQFAQIFEPLHKSLDPSNLEHLITPLVTIGHIALLAPDQFAAPLKSLVATFIVKDLLMNDRLPGKKTTKLWVPDEEVSPETMVKIQAIKMMVRWLLGMKNNHSKSGTSTLRLLTTILHSDGDLTEQGKISKPDMSRLRLAAGSAIVKLAQEPCYHEIITLEQYQLCALAINDECYQVRQVFAQKLHKGLSRLRLPLEYMAICALCAKDPVKERRAHARQCLVKNITVRREYLKQHAAVSEKLLSLLPEYVVPYTIHLLAHDPDYVKVQDIEQLKDVKECLWFVLEILMAKNENNSHAFIRKMVENIKQTKDAQGPDDTKMNEKLYTVCDVAMNIIMSKSTTYSLESPKDPVLPARFFTQPDKNFSNTKNYLPPEMKSFFTPGKPKTANVLGAVNKPLSSAGKQSQTKSSRMETVSNASSSSNPSSPGRIKGRLDSSEMDHSENEDYTMSSPLPGKKSDKREDPDLSELEKPRSRKKAPVTDPEEKLGMDDLTKLVQEQKPKGSQRGRKRGRTASDSDEQQWPEEKRHKEELLENEDEQNSPPKKGKRGRPPKPLGGGTSKEEPTMKTSKKGNKKKLVPPVVDDDEEEERQIGNTEHKSKSKQHRTSKRAQQRAESPETSAVESTQSTPQKGRGRPSKAPSPSQPPKKIRVGRSKQVATKENDSSEEMDVLQASSPVSDDTTQEGAEEEDISVGNVRRRSSKRERR
